The supplement of paper PMC11417369
± gives the standard deviation of the averaged measurements. The list shows a part of the results.

Each sequence was assayed on PfAP2-EXP AP2 domain (GST-tagged) (assay: gcPBM binding intensity (ln(normalized median fluorescence intensity)); higher = stronger DNA binding).
Method in brief: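 Binding intensity is the highest Masliner-normalised natural-log median intensity over replicate spots in either probe orientation. To obtain it, GST-tagged P. falciparum DNA-binding domains made in E. coli were incubated for 1 h on an Agilent 4 × 180k array of primer-extended double-stranded 36-bp intergenic genomic probes plus negative controls. Detection used Alexa488 anti-GST antibody with scanning at 488 nm.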

Row | Sequence | gcPBM binding intensity (ln)
1 | AATTAACAAAAACACACACACACACCGACAAAAAAA [CACACA_site4444] | 8.72 ± 0.59
2 | ATATGCTTATTGTAAAGTACATTATTATTTTTCCTA [XGTACX_site5479] | 8.51 ± 0.29
3 | GATAAAATCACTGGTGCATGTAGATATATAATATTA [TGCATGCA_site589] | 9.03 ± 0.042
4 | ATGAATAAATAAGACACACACGAAAATAAGTAAAAA [CACACA_site4216] | 9.13 ± 0.44
5 | TATTTTGATTATTCAGTGTATAAATATATATATATA [CACACA_negctrl_site545] | 9.79 ± 0.31
6 | TAGTTAGCCCAAGGGGTGCTAATTACTATCTAAATA | 8.08 ± 0.13
7 | CATACATATAAACACACACACACACCCACCCACAAA [CACACA_site8059] | 9.11 ± 0.74
8 | TATAGAAGCAAATTATGTACACAATATGGAAAATCA [XGTACX_site3345] | 8.97 ± 0.47
9 | TTTATAAATATTCTCACACACTTTTTATTTTAACAA [CACACA_site6454] | 8.39 ± 0.42
10 | AACACCAATTCATATGCACACACATCTGCATATTAT [CACACA_site8523] | 8.89 ± 0.31
11 | GTCGAGGATATATAAAGTACATATATATATATGATA [XGTACX_site1128] | 8.61 ± 0.28
12 | TAATGTATCTAAAATTGTACAAATATAAATATAAAT [XGTACX_site2764] | 8.52 ± 0.33
13 | CACTAAATAAGGAAAGTGCATAAAATAAAGGTTATA [GTGCAC_site9793] | 8.91 ± 0.39
14 | TAGTTACCTTAATATTGTACTTTTCTTTCATATATG [XGTACX_site1309] | 8.82 ± 0.38
15 | ATAGTTTCTGGTAGCTGTACGAGTCGTAGAGTGCAG [XGTACX_site2022] | 8.73 ± 0.6
16 | GTGTCAAATTTTATAACACACAAAAGGTTATATAAG [CACACA_site7839] | 8.47 ± 0.45
17 | TACAGTTTTTCTTTGAATTTATCAAGTTTTTTTCCC [XGTACX_negctrl_site60] | 8.56 ± 0.6
18 | ATTTAAAAAATATATTGTACATATTTTATTATGTTT [XGTACX_site2984] | 8.29 ± 0.35
19 | AAAAAAAAATTGTGTACACATAATTATATCATATGT [CACACA_site4500] | 8.56 ± 0.23
20 | ATGGATAATAAGTTTACACACAAAAAAAAAGAAAAA [CACACA_site861] | 8.65 ± 0.48
21 | ATAAGAATCATATTTAAACACACATACATATATATA [CACACA_site9106] | 8.84 ± 0.31
22 | ATTATATTAACAATGACATGCAATTCTTAATCCTTA [TGCATGCA_site648] | 8.41 ± 0.45
23 | AAAAAAAAAAAATACACACACATAAAAAAAAAAATA [CACACA_site1858] | 8.37 ± 0.41
24 | TTTTTATTGGTGAATACACACGTATATATATATTAT [CACACA_site8756] | 8.71 ± 0.52
25 | ATTAAATAAACCATTACACACTTTTATGTTTTGAAA [CACACA_site1143] | 8.41 ± 0.39
